These results are taken from paper PMC4336329 (PLoS ONE, 2015).

About 2,200 (0.71%) of roughly 310,000 compounds showed an effect of 50% or more. Effects have a minus sign here. The list shows a part of the results.

human ether-à-go-go-related gene (hERG) potassium channel, sequence (Q12809 whole entry, looked up): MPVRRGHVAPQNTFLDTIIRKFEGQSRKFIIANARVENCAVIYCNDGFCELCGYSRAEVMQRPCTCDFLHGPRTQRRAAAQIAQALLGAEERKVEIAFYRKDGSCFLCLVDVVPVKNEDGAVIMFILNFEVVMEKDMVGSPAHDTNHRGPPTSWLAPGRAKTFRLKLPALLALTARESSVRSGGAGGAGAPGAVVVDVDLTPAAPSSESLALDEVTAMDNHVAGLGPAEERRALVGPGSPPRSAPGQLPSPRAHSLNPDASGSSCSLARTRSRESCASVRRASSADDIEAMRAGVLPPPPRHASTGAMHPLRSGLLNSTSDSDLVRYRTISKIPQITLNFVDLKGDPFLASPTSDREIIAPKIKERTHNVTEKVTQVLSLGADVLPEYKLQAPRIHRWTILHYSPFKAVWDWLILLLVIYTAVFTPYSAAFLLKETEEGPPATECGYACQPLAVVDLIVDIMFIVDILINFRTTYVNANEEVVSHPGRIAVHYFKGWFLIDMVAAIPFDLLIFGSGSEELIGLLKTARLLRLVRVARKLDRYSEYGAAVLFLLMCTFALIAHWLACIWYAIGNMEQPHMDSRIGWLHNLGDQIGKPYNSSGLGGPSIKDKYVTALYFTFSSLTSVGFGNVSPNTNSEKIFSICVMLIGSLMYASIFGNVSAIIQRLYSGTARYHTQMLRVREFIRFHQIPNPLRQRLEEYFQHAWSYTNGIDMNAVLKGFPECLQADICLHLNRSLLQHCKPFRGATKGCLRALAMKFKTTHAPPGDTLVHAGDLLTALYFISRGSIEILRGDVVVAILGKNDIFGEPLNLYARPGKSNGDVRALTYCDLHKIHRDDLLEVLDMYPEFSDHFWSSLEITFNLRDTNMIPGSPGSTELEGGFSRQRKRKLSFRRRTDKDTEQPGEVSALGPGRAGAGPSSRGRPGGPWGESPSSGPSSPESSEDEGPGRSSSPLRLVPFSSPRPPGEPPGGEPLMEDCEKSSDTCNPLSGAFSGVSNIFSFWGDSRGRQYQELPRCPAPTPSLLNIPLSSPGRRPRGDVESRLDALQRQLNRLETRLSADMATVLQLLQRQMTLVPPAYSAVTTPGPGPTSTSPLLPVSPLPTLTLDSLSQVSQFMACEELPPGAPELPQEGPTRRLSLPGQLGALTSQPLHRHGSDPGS

This assay concerns the target human ether-à-go-go-related gene (hERG) potassium channel (human, UniProt Q12809). Kind of assay: primary screen, population patch clamp on CHO cells stably expressing hERG.
For the compound `COc1cccc(CNn2c(-c3cccc(C)c3)nc3ccccc3c2=O)c1`, the “hERG current change (%, negative = inhibition) at 1uM” value was determined as 6.03%.
The result for `O=C(Nc1cccc([N+](=O)[O-])c1)c1[nH]ncc1Cl` reads 1.76%; that for `CC(=O)N1CCc2c(sc(NC(=O)c3ccc(S(=O)(=O)N(C)C)cc3)c2C#N)C1`, 10.1%; that for `O=C(O)c1ccc(N2CCS(=O)(=O)CC2)cc1`, 15.8%.
As for `Cc1ccc(S(=O)(=O)N[C@@H](CCCCN)C(=O)CCl)cc1.Cl`, the figure is 9.79%; as for `CC(C)c1nc(SCC(=O)Nc2ccc3c(c2)OCCO3)n[nH]1`, 2.27%; as for `CCCCOC(=O)c1ccc(Nc2ncnc3nc[nH]c23)cc1`, 12.6%.
As for `COc1cccc(CN(C(=O)c2ccccc2Cl)C2CCS(=O)(=O)C2)c1` (centres unmarked), the figure is 12.2%; as for `Cc1ccccc1OCC(=O)OCC(=O)NCc1ccco1`, 6.61%; as for `COc1ccc(NC(=O)C2CCCN2c2nn3c(=O)cc(C)nc3s2)cc1` (centres unmarked), 9.92%.
`CC1(C)CC(=O)c2c(nc3ccccc3c2N)C1`: the “hERG current change (%, negative = inhibition) at 1uM” value was found to be 3.55%.
As for `COc1ccc2ncn(-c3ccccc3)c2c1`, the figure is 1.48%; as for `CCN(CC)C1CCN(C(=O)c2ccc(OC3CCN(Cc4ccccn4)CC3)cc2)C1` (centres unmarked), 6.55%.
Consider `Cc1ccccc1NC(=O)C1CC(=O)N(Cc2ccccc2)C1` (centres unmarked), for which the “hERG current change (%, negative = inhibition) at 1uM” value was -0.411%.
On to `CCC(C)NC(=O)C1CCN(C(=O)c2ccccc2)CC1` (centres unmarked), for which the “hERG current change (%, negative = inhibition) at 1uM” value is given as 12.3%.
As for `O=C(Nc1ccccc1)N(O)c1ccc(Cl)cc1`, the figure is -1.26%; as for `NS(=O)(=O)c1ccc(Nc2nc(-c3cccnc3)cs2)cc1`, 2.34%; as for `COc1ccc(/C=C2\SC(=O)N=C2N)cc1OC`, 16.4%.
Turning to `CC1CC(C)(C)CC2(C1)NC(=O)N(CC(=O)NCCc1c[nH]c3ccccc13)C2=O` (centres unmarked), the “hERG current change (%, negative = inhibition) at 1uM” value turned out to be 3.57%.
With `CCCC[n+]1ccn(C2=C([O-])c3ccccc3C(=O)/C2=N\S(=O)(=O)c2ccc(Br)cc2)c1`, the “hERG current change (%, negative = inhibition) at 1uM” value is reported as -21.4%.
The result for `Cc1cc2oc(C(=O)NC3CCS(=O)(=O)C3)cc(=O)c2cc1C` (centres unmarked) reads 14.9%.
Take `COc1cccc(/C=N/NC(=O)c2ccc(COc3ccc(Cl)cc3Cl)o2)c1`: the “hERG current change (%, negative = inhibition) at 1uM” value is recorded as 5.91%.
As for `CC(C)(C)S(=O)(=O)c1ccc2nc3c(n2c1)CCCC3`, the figure is 9.37%; as for `COc1cc(OC)cc(C(=O)NC(C(=O)N2CCc3ccccc3C2)C(C)C)c1` (centres unmarked), 15.4%.
The result for `CC(C[N+](C)(C)C)OC(=O)C1(c2ccccc2)CCCC1` (centres unmarked) reads 20.8%; that for `COCCCNC(=O)c1ccc([N+](=O)[O-])cc1`, 6.02%; that for `CCCCCCC(=O)NN1CCN(C)CC1`, 16.2%.
As for `Cc1ccc2c(c1)N(C(=O)CCC(=O)NCc1cccc(F)c1)CCO2`, the figure is 9.09%; as for `Cn1c(=O)cc(SCC(=O)NCCCN2CCOCC2)c2ccc(Cl)cc21`, 14.7%; as for `CNC(=O)c1cc2c(ccc3ccccc32)oc1=N`, 0.583%.
On to `CCN(CC)C(=O)C1CCCN(C(=O)c2oc3ccc(C)cc3c2C)C1` (centres unmarked), for which the “hERG current change (%, negative = inhibition) at 1uM” value was found to be 5.71%.
As for `COc1cc(OC)c(OC)cc1CN1CCc2ccccc2C1`, the figure is 13.2%; as for `CCc1cc(=O)oc2cc(OCC(=O)NCC3CCC(C(=O)O)CC3)ccc12` (centres unmarked), -2.63%; as for `CCOc1ccc(N(CC(=O)NCCSCc2ccc(Cl)cc2)S(C)(=O)=O)cc1`, 11.2%.
As for `COc1cc(CNCC(C)C)c(Br)cc1OCC(=O)NCc1ccccc1`, the figure is 0.825%; as for `N#Cc1c(N)c2ccccn2c1C(=O)c1ccc(Br)cc1`, 16%.
As for `C#CCOC(=O)C1C2C=CC(C2)C1C(=O)O` (centres unmarked), the figure is 3.58%.
For `COc1cccc(C(=O)NC2CCN(C(=O)N3c4ccccc4Sc4ccccc43)CC2)c1`, the “hERG current change (%, negative = inhibition) at 1uM” value is recorded as -3.22%.
In the case of `O=C(CSc1nnc(-c2cccs2)n1C1CC1)NCC1CCCO1` (centres unmarked), the “hERG current change (%, negative = inhibition) at 1uM” value is given as 7.08%.
With `CC(C)C[C@@H](CO)N1CCNCCC1=O`, the “hERG current change (%, negative = inhibition) at 1uM” value is 15.7%.
As for `Cc1oc2c(Cl)c(Cl)c(O)c(CN(C)C)c2c1C(=O)c1ccc(Cl)cc1`, the figure is 17.8%; as for `COc1ccc(NC(=O)C(C)N2C(=O)c3ccccc3C2=O)cc1S(=O)(=O)N1CCOCC1` (centres unmarked), 15.8%; as for `O=C(Nc1nnc(CCN2CCCCC2)s1)c1ccc(Br)cc1`, -8.18%.
In the case of `CS(=O)(=O)c1ccc(Cl)c(NC(=O)c2cccc(N3C(=O)CCC3=O)c2)c1`, the “hERG current change (%, negative = inhibition) at 1uM” value was 9.67%.
The result for `O=c1cnn(Cc2c(Cl)cccc2Cl)c2ccccc12` reads -0.134%.
The result for `CC(=O)c1ccc(OCc2cc(C(=O)N3CCC(Oc4ccccc4C)CC3)no2)cc1` reads 9.86%; that for `CCOc1ccc2ccccc2c1C(=O)N[C@@H]1C(=O)N2[C@@H]1SC(C)(C)[C@@H]2C(=O)[O-].O.[Na+]`, 16%; that for `CCOC(=O)N1CCN(C(=O)c2cnc3n(c2=O)CCS3)CC1`, 9.51%.
As for `CC(=O)Nc1ccc(NC(=O)COc2cc(C)cc3oc(=O)cc(C)c23)cc1`, the figure is 9.52%.
On to `O=C(NC1CCCC1)C1CCCN(S(=O)(=O)c2cccc3cccnc23)C1` (centres unmarked), for which the “hERG current change (%, negative = inhibition) at 1uM” value is listed as 9.49%.
The result for `O=c1[nH]c(CSc2nnc(-c3ccncc3)n2Cc2ccco2)nc2ccccc12` reads -32.8%.
As for `O=C(COC(=O)c1ccccc1-n1cnnn1)c1ccc(Br)cc1`, the figure is 3.96%.
Take `Cc1cc(C)c(S(=O)(=O)c2c(C)cccc2C)c(OCC(C)C)n1`: the “hERG current change (%, negative = inhibition) at 1uM” value is 8.38%.
The result for `Cn1c2c(c(=O)n(C)c1=O)C(NC(=O)c1ccco1)(C(F)(F)F)C(=O)N2` (centres unmarked) reads 13.6%.
As for `CC(C)NC(=O)CN(Cc1ccccc1)S(=O)(=O)c1ccccc1`, the figure is 7.8%; as for `CCC(=NCCCn1ccnc1)c1c(O)n(Cc2ccccc2)c(=O)[nH]c1=O`, -16.2%.
The result for `Cc1cccc2c(C(=O)O)c3cccc(C)c3nc12` reads 6.04%; that for `CCc1ccc(OCC(=O)Nc2cc(S(=O)(=O)CC)ccc2O)cc1`, 9.67%; that for `COc1ccc([C@H]2CC(=O)C=C(c3ccc4cc[nH]c4c3)C2)cc1`, -8.43%.
On to `CN(C)C(=O)Oc1ccc2nnc3ccnn3c2c1`, for which the “hERG current change (%, negative = inhibition) at 1uM” value was 10.8%.
As to `CCCCC1NC(C(=O)O)CS1` (centres unmarked), the “hERG current change (%, negative = inhibition) at 1uM” value is given as 11.3%.
As for `Cc1ccc(C(C(=O)NC2CCCCC2)N(C(=O)Cc2c[nH]c3ccccc23)c2ccccc2C)o1` (centres unmarked), the figure is 10.1%.
`COc1cccc(/C=C/C(=O)NCc2cn3cc(Cl)ccc3n2)c1OC`: the “hERG current change (%, negative = inhibition) at 1uM” value was determined as 13.2%.
The result for `CC1Sc2ccc(C(=O)Nc3ncccc3O)cc2NC1=O` (centres unmarked) reads 10.3%.
As for `Cc1ccc(C)c(NC(=O)CSc2nnc(-c3ccncc3)o2)c1`, the “hERG current change (%, negative = inhibition) at 1uM” value was 12.4%.
As for `Cc1ccccc1-n1c(SC/C(O)=C(\C#N)c2nc3ccccc3[nH]2)nnc1-c1ccncc1`, the figure is -0.208%; as for `N#CC1=C(N)NC(SCc2ccc(Cl)cc2)=C(C#N)C12CCCCC2`, 7.96%.
The result for `CC(C)CNC(=O)C1Nc2ccc(OC(F)(F)F)cc2C2C=CCC12` (centres unmarked) reads 12.7%; that for `Cn1cc(S(=O)(=O)N2CCOCC2)cc1C(=O)Nc1ccc(Cl)cc1`, -7.1%.
As for `O=C(Nc1ccc(C(=O)NCc2ccccc2Cl)cc1)C1=CSCCO1`, the figure is 6.1%; as for `O=C(NC1CCCCCC1)C1CCN(S(=O)(=O)c2ccccc2)CC1`, 11.1%.
In the case of `CC(C)OCCCNC(=O)CN1C(=O)/C(=C/c2ccccc2)Sc2ccccc21`, the “hERG current change (%, negative = inhibition) at 1uM” value was 11.8%.
The result for `CCN(CC)CCCNC(=O)CNC(=O)c1nn(-c2ccc(OC)c(OC)c2)c(=O)c2ccccc12` reads 19.2%; that for `Cc1cc(=O)n2nc(N3CCC(C(=O)NCc4cccnc4)CC3)sc2n1`, 6.87%; that for `O=C(OCCCC(=O)N1CCOCC1)c1ccccc1`, 10.3%.
Take `O=C(C1=C(O)C(=O)N(Cc2ccccc2)C1c1ccncc1)c1ccco1` (centres unmarked): the “hERG current change (%, negative = inhibition) at 1uM” value was 12.9%.
As for `COc1ccc(CNC(=O)c2c(-c3cc(Cl)c(OC)c(Cl)c3)noc2C)cc1`, the figure is 1.89%.
As for `CCOC(=O)C(N)CSC1CC(=O)N(c2ccc(OC)cc2)C1=O.Cl` (centres unmarked), the figure is 21.6%; as for `NCCCCCNC(=O)/C=N\O`, 16.3%; as for `CCOC(=O)C(=O)N1CCN(c2ccccc2OC)CC1`, 8.52%.
As for `COCCNC(=O)c1onc(CS(=O)(=O)c2cc(C)cc(C)c2)c1C(=O)NCCOC`, the figure is 11.5%; as for `CNc1ccc(OC)cc1-n1cnc(-c2ccc([N+](=O)[O-])cc2)c1`, 12.7%; as for `COCc1nc2oc3ccc(C)cc3c(=O)c2cc1C(=O)OC`, 17%.
For the compound `COc1ccc(-n2c(CN3CCN(C)CC3)nc3ccc([N+](=O)[O-])cc3c2=O)c(OC)c1`, the “hERG current change (%, negative = inhibition) at 1uM” value is listed as -17.5%.
Turning to `COc1ccc([C@@H]2[C@@H]3C(=O)N(C(C)(C)C)C(=O)[C@@H]3[C@]3(Cc4ccc(Cl)cc4)C(=O)N(c4ccc(C)cc4)C(=O)N23)cc1`, the “hERG current change (%, negative = inhibition) at 1uM” value was determined as 8.52%.
As for `COc1cc(NC(=O)/C=C/c2ccccc2)c(C(=O)O)cc1OC`, the figure is 8.31%.
On to `CCCCCC1CC(CC(=O)Nc2ccc([N+](=O)[O-])cc2)OC1=O` (centres unmarked), for which the “hERG current change (%, negative = inhibition) at 1uM” value is -7.5%.
Take `CC(C)c1ccc(/C=C2\SC(=S)N(CCC(=O)NCCCn3ccnc3)C2=O)cc1`: the “hERG current change (%, negative = inhibition) at 1uM” value is on record as 6.99%.
As for `Cc1ccc(NC2CCCN(C(=O)c3ccc4[nH]ccc4c3)C2)cc1C` (centres unmarked), the figure is 9.7%.
